{
  "sequences": {"note": "Chains of the proteins cited; added tags and fusions are not shown.", "UniProt Q9UM11": "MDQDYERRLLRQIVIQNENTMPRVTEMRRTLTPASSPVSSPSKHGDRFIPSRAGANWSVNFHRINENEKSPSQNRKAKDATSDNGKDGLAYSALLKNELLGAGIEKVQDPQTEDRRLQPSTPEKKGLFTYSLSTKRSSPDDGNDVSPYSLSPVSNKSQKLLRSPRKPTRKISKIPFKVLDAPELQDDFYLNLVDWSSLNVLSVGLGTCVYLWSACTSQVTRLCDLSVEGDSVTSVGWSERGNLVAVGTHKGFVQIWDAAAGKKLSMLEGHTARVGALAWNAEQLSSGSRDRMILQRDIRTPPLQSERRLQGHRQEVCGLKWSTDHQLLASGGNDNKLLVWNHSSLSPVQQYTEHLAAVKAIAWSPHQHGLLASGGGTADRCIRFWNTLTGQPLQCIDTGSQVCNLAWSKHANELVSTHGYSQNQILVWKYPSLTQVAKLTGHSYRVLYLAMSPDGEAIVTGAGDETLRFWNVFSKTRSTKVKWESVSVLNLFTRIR", "UniProt Q12834": "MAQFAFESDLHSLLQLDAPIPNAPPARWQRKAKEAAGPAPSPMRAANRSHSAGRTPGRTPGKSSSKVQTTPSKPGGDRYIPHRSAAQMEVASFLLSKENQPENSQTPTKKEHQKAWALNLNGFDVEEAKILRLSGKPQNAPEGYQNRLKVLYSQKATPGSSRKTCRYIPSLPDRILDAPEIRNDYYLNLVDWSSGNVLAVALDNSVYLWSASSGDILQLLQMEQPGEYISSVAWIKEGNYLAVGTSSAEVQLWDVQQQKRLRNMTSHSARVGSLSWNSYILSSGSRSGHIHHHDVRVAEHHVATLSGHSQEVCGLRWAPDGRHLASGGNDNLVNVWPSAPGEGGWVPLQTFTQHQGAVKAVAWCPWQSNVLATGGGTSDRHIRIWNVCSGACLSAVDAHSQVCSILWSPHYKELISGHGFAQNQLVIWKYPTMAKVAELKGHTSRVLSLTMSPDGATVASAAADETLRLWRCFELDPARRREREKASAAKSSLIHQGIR"},
  "source": "paper PMC6555833",
  "about": "“APC/C^CDH1 synchronizes ribose-5-phosphate levels and DNA synthesis to cell cycle progression” (Nature Communications, 2019)",
  "molecules": {"B1": {"name": "TKTL1 of the recombinant TKTL1-TKT heterodimer (protein, UniProt P51854 1-596)", "chain": "MADAEARAEFPEEARPDRGTLQVLQDMASRLRIHSIRATCSTSSGHPTSCSSSSEIMSVLFFYIMRYKQSDPENPDNDRFVLAKRLSFVDVATGWLGQGLGVACGMAYTGKYFDRASYRVFCLMSDGESSEGSVWEAMAFASYYSLDNLVAIFDVNRLGHSGALPAEHCINIYQRRCEAFGWNTYVVDGRDVEALCQVFWQASQVKHKPTAVVAKTFKGRGTPSIEDAESWHAKPMPRERADAIIKLIESQIQTSRNLDPQPPIEDSPEVNITDVRMTSPPDYRVGDKIATRKACGLALAKLGYANNRVVVLDGDTRYSTFSEIFNKEYPERFIECFMAEQNMVSVALGCASRGRTIAFASTFAAFLTRAFDHIRIGGLAESNINIIGSHCGVSVGDDGASQMALEDIAMFRTIPKCTIFYPTDAVSTEHAVALAANAKGMCFIRTTRPETMVIYTPQERFEIGQAKVLRHCVSDKVTVIGAGITVYEALAAADELSKQDIFIRVIDLFTIKPLDVATIVSSAKATEGRIITVEDHYPQGGIGEAVCAAVSMDPDIQVHSLAVSGVPQSGKSEELLDMYGISARHIIVAVKCMLLN"}, "B2": {"name": "endogenous TKT (cells of Fig. 5a) (protein, UniProt P29401 1-623)", "chain": "MESYHKPDQQKLQALKDTANRLRISSIQATTAAGSGHPTSCCSAAEIMAVLFFHTMRYKSQDPRNPHNDRFVLSKGHAAPILYAVWAEAGFLAEAELLNLRKISSDLDGHPVPKQAFTDVATGSLGQGLGAACGMAYTGKYFDKASYRVYCLLGDGELSEGSVWEAMAFASIYKLDNLVAILDINRLGQSDPAPLQHQMDIYQKRCEAFGWHAIIVDGHSVEELCKAFGQAKHQPTAIIAKTFKGRGITGVEDKESWHGKPLPKNMAEQIIQEIYSQIQSKKKILATPPQEDAPSVDIANIRMPSLPSYKVGDKIATRKAYGQALAKLGHASDRIIALDGDTKNSTFSEIFKKEHPDRFIECYIAEQNMVSIAVGCATRNRTVPFCSTFAAFFTRAFDQIRMAAISESNINLCGSHCGVSIGEDGPSQMALEDLAMFRSVPTSTVFYPSDGVATEKAVELAANTKGICFIRTSRPENAIIYNNNEDFQVGQAKVVLKSKDDQVTVIGAGVTLHEALAAAELLKKEKINIRVLDPFTIKPLDRKLILDSARATKGRILTVEDHYYEGGIGEAVSSAVVGEPGITVTHLAVNRVPRSGKPAELLKMFGIDRDAIAQAVRGLITKA"}, "B3": {"name": "endogenous TKT (ccRCC tissue) (protein, UniProt P29401 1-623)", "chain": "B2 chain"}, "B4": {"name": "TKTL1^118–448 (domain or fragment, UniProt P51854 118-448)", "chain": "YRVFCLMSDGESSEGSVWEAMAFASYYSLDNLVAIFDVNRLGHSGALPAEHCINIYQRRCEAFGWNTYVVDGRDVEALCQVFWQASQVKHKPTAVVAKTFKGRGTPSIEDAESWHAKPMPRERADAIIKLIESQIQTSRNLDPQPPIEDSPEVNITDVRMTSPPDYRVGDKIATRKACGLALAKLGYANNRVVVLDGDTRYSTFSEIFNKEYPERFIECFMAEQNMVSVALGCASRGRTIAFASTFAAFLTRAFDHIRIGGLAESNINIIGSHCGVSVGDDGASQMALEDIAMFRTIPKCTIFYPTDAVSTEHAVALAANAKGMCFIRTTR"}, "B5": {"name": "TKT with N-terminus (a.a. 1–147) and C-terminus (a.a. 474–623) removed (domain or fragment, UniProt P29401 148-473)", "chain": "RVYCLLGDGELSEGSVWEAMAFASIYKLDNLVAILDINRLGQSDPAPLQHQMDIYQKRCEAFGWHAIIVDGHSVEELCKAFGQAKHQPTAIIAKTFKGRGITGVEDKESWHGKPLPKNMAEQIIQEIYSQIQSKKKILATPPQEDAPSVDIANIRMPSLPSYKVGDKIATRKAYGQALAKLGHASDRIIALDGDTKNSTFSEIFKKEHPDRFIECYIAEQNMVSIAVGCATRNRTVPFCSTFAAFFTRAFDQIRMAAISESNINLCGSHCGVSIGEDGPSQMALEDLAMFRSVPTSTVFYPSDGVATEKAVELAANTKGICFIRTS"}},
  "key": {"[1]": {"biological_target": "T1, TKTL1-FLAG (transketolase-like 1) (human) (UniProt P51854)", "T1 sequence": "B1 chain", "assay": "co-IP; co-expression in HeLa cells; lysis in 0.5% NP-40 buffer (50 mM Tris-HCl pH 7.5, 150 mM NaCl, 0.3% NONIDET P-40); Flag beads 3 h at 4 °C; western blot"}, "TKTL1^ΔD-box (human)": {"biological_target": "T2, TKTL1^ΔD-box (human) (UniProt P51854)", "T2 sequence": "B1 chain with R18A, L21A", "assay": "co-IP; co-expression in HeLa cells; lysis in 0.5% NP-40 buffer (50 mM Tris-HCl pH 7.5, 150 mM NaCl, 0.3% NONIDET P-40); Flag beads 3 h at 4 °C; western blot"}, "[2]": {"biological_target": "T3, endogenous TKTL1 (ccRCC tissue) (human (endogenous in ccRCC tissue)) (UniProt P51854)", "T3 sequence": "B1 chain", "assay": "co-IP; endogenous TKTL1 affinity purified from ccRCC tissue lysate and probed for the endogenous partner"}, "[3]": {"biological_target": "T4, exogenous tagged TKTL1 (co-expressed with CDC20, SKP2 or FBW7) (human) (UniProt P51854)", "T4 sequence": "B1 chain", "assay": "co-IP; exogenous tagged proteins co-expressed in cultured cells (Supplementary Fig. 4a-c); cell line and tags not told"}, "[4]": {"biological_target": "T5, TKT of the recombinant TKTL1-TKT heterodimer (human) (UniProt P29401)", "T5 sequence": "B2 chain", "assay": "native gel or EMSA; native gel electrophoresis of TKT, TKTL1-TKT and TKTL1; both purified"}, "[5]": {"biological_target": "T5, TKT of the recombinant TKTL1-TKT heterodimer (human)", "assay": "SEC; Superdex 200 in cold PBS (4 °C), 0.4 mL/min; fractions analysed by western blot; markers MSH6 (152 kDa) and BSA (66 kDa); heterodimer purified beforehand by nickel resin then FLAG beads; both purified"}, "[6]": {"biological_target": "T6, ectopically expressed TKTL1 (progressive overexpression, Fig. 5a) (human) (UniProt P51854)", "T6 sequence": "B1 chain", "assay": "immunodepletion; TKTL1 progressively overexpressed; ectopic TKTL1 removed from the cell lysate by affinity purification; TKT left in the cleared lysate blotted"}, "[7]": {"biological_target": "T3, endogenous TKTL1 (ccRCC tissue) (human (endogenous in ccRCC tissue))", "assay": "co-IP; endogenous TKTL1 affinity purified from ccRCC tissue lysate and probed for the endogenous partner", "remark": "listed apart in the source"}, "[8]": {"biological_target": "T3, endogenous TKTL1 (ccRCC tissue) (human (endogenous in ccRCC tissue))", "assay": "immunodepletion; TKTL1 removed from ccRCC tissue lysate by an anti-TKTL1 antibody; TKT left in the cleared lysate blotted"}, "[9]": {"biological_target": "T7, TKT (overexpressed in HEK293T) (human) (UniProt P29401)", "T7 sequence": "B2 chain", "assay": "co-IP; full and truncated TKTL1 and TKT co-expressed in HEK293T cells; Flag beads; western blot"}, "[10]": {"biological_target": "T8, TKTL1 (overexpressed in HEK293T) (human) (UniProt P51854)", "T8 sequence": "B1 chain", "assay": "co-IP; full and truncated TKTL1 and TKT co-expressed in HEK293T cells; Flag beads; western blot"}},
  "note": "Changes are numbered by the printed parent chain. No constants are given. Whether binding was seen depends on the method and setting. For some assays here: Binding seen in cells or lysates may run through a third protein. Some results given as binding are weak or reduced against the parent protein; the word gives no strength. For some assays here: Where a sequence is shown, tags or fusion partners need not be part of it.",
  "data": [
    {"molecule": "CDH1-Myc (APC/C adaptor CDH1) (from UniProt Q9UM11 1-496)", "values": [
      {"measurement": "binding", "setting": "[1]", "value": "binds"},
      {"measurement": "binding", "setting": "TKTL1^ΔD-box (human)", "value": "binds"}
    ]},
    {"molecule": "endogenous CDH1 (ccRCC tissue) (from UniProt Q9UM11 1-496)", "values": [
      {"measurement": "binding", "setting": "[2]", "value": "binds"}
    ]},
    {"molecule": "CDC20 (from UniProt Q12834 1-499)", "values": [
      {"measurement": "binding", "setting": "[3]", "value": "no binding"}
    ]},
    {"molecule": "B1", "values": [
      {"measurement": "binding", "setting": "[4]", "value": "binds"},
      {"measurement": "binding", "setting": "[5]", "value": "binds"}
    ]},
    {"molecule": "B2", "values": [
      {"measurement": "binding", "setting": "[6]", "value": "binds"}
    ]},
    {"molecule": "B3", "values": [
      {"measurement": "binding", "setting": "[7]", "value": "binds"},
      {"measurement": "binding", "setting": "[8]", "value": "binds"}
    ]},
    {"molecule": "B4", "values": [
      {"measurement": "binding", "setting": "[9]", "value": "no binding"}
    ]},
    {"molecule": "B5", "values": [
      {"measurement": "binding", "setting": "[10]", "value": "no binding"}
    ]}
  ]
}
